Measurements as given in PMC12040169 (PLOS Biology, 2025).
Some of the results follow.

What follows are molecules tested on T1, C. trachomatis L2/434/Bu expressing GFP (CTL2-GFP). Conditions: total inclusion area; 28.5 h, 10 µM; inhibitor.
T1 construct: L2/434/Bu GFP intracellular growth in HeLa cells
Parameters: species or system HeLa; C. trachomatis total inclusion area by high-content imaging, normalised to DMSO
Summary of the method: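 After bulk GFP and resorufin fluorescence reads, cells were fixed, stained with Hoechst and imaged by high-content microscopy. Inclusion area and number (GFP) stood in for chlamydial growth, nuclei count (Hoechst) for host cell viability. MICs were derived as for the bulk readout.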

First: NNC(=O)CCc1ccccc1O [CBK261214]
Second: CCc1cc(Br)ccc1S(=O)(=O)Nc1ccccc1O [CBK043877]
The “% of control remaining” value of the first is higher: 109.081 for the first, 57.1404 for the second.

First: O=C(O)CN(c1ccc2c(c1)OCCO2)S(=O)(=O)c1ccccc1 [CBK268017]
Second: O=C(Cc1ccccc1)Nc1nnc(C2=COCCO2)o1 [CBK287416]
The “% of control remaining” value of the first is higher: 103.313 for the first, 92.2471 for the second.

Going from `CN1CCC2(CC1)CC(NC(=O)C1CCCCC1)c1ccccc1O2` (stereo not shown) [CBK282635] to `CN1CCCC(NC(=O)C2CCN(Cc3ccc(F)cc3)CC2)C1` (stereo not shown) [CBK282516], the “% of control remaining” value rises from 98.2606 to 100.875.

Going from `Cc1nn(CC(=O)N2CCCC2)c(=O)c2cc3sccc3n12` [CBK284024] to `CC1CCCCN1C(=O)CN1C(=O)[C@H]2CCCN2C(=O)c2ccccc21` (stereo partly shown) [CBK286320], the “% of control remaining” value falls from 93.8519 to 83.8322.

First: Cc1nn(-c2ccccn2)c(N)c1C1CC(=O)N(c2ccc(C(=O)O)cc2)C1=O (stereo not shown) [CBK291180]
Second: O=C(O)c1ccc(N2C(=O)CC(N3CCN(Cc4ccc5c(c4)OCO5)CC3)C2=O)cc1 (stereo not shown) [CBK074573]
The “% of control remaining” value of the first is higher: 119.852 for the first, 89.3509 for the second.

Going from `CN(C)/C=N/c1ncc2ncn(C3CC(O)C(CO)O3)c2n1` (stereo not shown) [CBK201175] to `Nc1ccn([C@@H]2O[C@H](CO)[C@H](O)C2O)c(=S)n1` (stereo partly shown) [CBK201293], the “% of control remaining” value falls from 96.0736 to 88.6685.

Compared with `CCCN(C(=O)c1coc(COc2ccc3sc(C)nc3c2)n1)C1CC1` [CBK306878], `CCOc1cc(-c2cc(C(=O)O)c3ccccc3n2)ccc1O` [CBK266848] is lower in “% of control remaining” value: 80.8882 for the first, 79.1141 for the second.

Going from `Cc1cc(OCC(=O)O/N=C(\N)Cc2ccc([N+](=O)[O-])cc2)ccc1Cl` [CBK264322] to `CCCOc1ccc(OC(=O)COc2ccccc2)cc1` [CBK160853], the “% of control remaining” value falls from 82.6756 to 82.379.

Going from `O=C(N/N=C\c1cccc(O)c1)C(=O)N/N=C/c1cccc(O)c1` [CBK261962] to `COc1cc(/C=N/NC(=O)c2cccnc2)cc([N+](=O)[O-])c1O` [CBK262233], the “% of control remaining” value falls from 119.024 to 88.1485.

First: CC(C)N1CCN(c2nccnc2Cl)CC1 [CBK028901]
Second: Cc1cc(C)n(CC2CCCN2CCc2ccccn2)n1 (stereo not shown) [CBK304846]
The “% of control remaining” value of the first is higher: 127.614 for the first, 44.8817 for the second.

Going from `CC(=O)c1ccc(-c2ccc(C(=O)NCC3COc4ccccc4O3)c(N(C)C(C)=O)n2)s1` (stereo not shown) [CBK076637] to `Cc1cccc(C)c1NC(=O)CN1CCC(Oc2cncc(OCC3COc4ccccc4O3)n2)C1` (stereo not shown) [CBK084373], the “% of control remaining” value falls from 104.676 to 90.3077.

Compared with `COc1cccc(NC(=O)CCS(=O)(=O)c2cccs2)c1` [CBK071069], `CCc1c(C)nc2ccccc2c1S(=O)(=O)CCC(=O)OC` [CBK155468T] is higher in “% of control remaining” value: 86.9881 for the first, 100.088 for the second.

Compared with `CCC(=O)Nc1sc2c(c1-c1nc3ccccc3s1)CCCC2` [CBK287324], `O=C(Nc1sc2c(c1CN1CCCCCC1)CCCC2)c1ccccc1` [CBK261811] is lower in “% of control remaining” value: 99.1348 for the first, 93.0387 for the second.

Going from `COc1cc(C(c2c[nH]c3ccccc23)c2c[nH]c3ccccc23)c(Br)cc1OC(C)=O` [CBK266051] to `COc1cccc(Cc2cccc(C3CCN(C(=O)Cc4c[nH]c5ccccc45)CC3)n2)c1` [CBK286145], the “% of control remaining” value rises from 58.383 to 61.6963.

Going from `Nc1ccc(S(=O)(=O)NC2(C(F)(F)F)NC(=O)N(c3ccccc3Cl)C2=O)cc1` (stereo not shown) [CBK268003] to `O=c1cc(N2CCN(c3ccccc3)CC2)[nH]c(=O)n1-c1ccccc1Cl` [CBK287506], the “% of control remaining” value rises from 92.4933 to 126.243.

Compared with `Cc1c(Br)c(C(F)(F)F)nn1CC(=O)NCCN1CCOCC1` [CBK018700], `CCCNC(=O)NC1CC(C)(C)Cc2nc(N3CCOCC3)ncc21` (stereo not shown) [CBK307232] is higher in “% of control remaining” value: 59.6135 for the first, 76.0861 for the second.

Going from `Cc1[nH]c(=O)[nH]c(=O)c1Cc1cccc2ccccc12` [CBK111494] to `O=C(O)c1cccc(N2C(=O)c3cccc4c(C(=O)c5ccccc5)ccc(c34)C2=O)c1` [CBK299809], the “% of control remaining” value falls from 84.5087 to 81.7615.

First: Cn1cc(C2CCCCCN2C(=O)c2cc(C3CC3)on2)cn1 (stereo not shown) [CBK285301]
Second: O=C(c1ccno1)N1C[C@@H]2OCC(=O)N(CC3CC3)[C@@H]2C1 [CBK289680]
The “% of control remaining” value of the first is lower: 90.6259 for the first, 111.215 for the second.

Going from `O=C1C2C3C=CC(C2C(=O)N1CCO)C1C2C(=O)N(CCO)C(=O)C2C31` (stereo not shown) [CBK263016] to `Cn1c2ccccc2c2ncn(CCCO)c(=O)c21` [CBK287951], the “% of control remaining” value falls from 87.176 to 45.5653.

First: O=C(Nc1cccnc1)N1CCN(c2ccccc2)CC1 [CBK145043]
Second: COc1ccccc1N1CCN(C(=O)NCCc2c[nH]cn2)CC1 [CBK155369]
The “% of control remaining” value of the first is lower: 110.125 for the first, 119.034 for the second.

Going from `Cc1c(Cl)cccc1S(=O)(=O)Nc1nccnc1C(=O)O` [CBK024795] to `Cc1c(C(=O)Nc2ccc(C(=O)O)cc2)nnn1-c1ccc(Cl)cc1` [CBK300532], the “% of control remaining” value falls from 110.282 to 42.7965.

First: CCCC/C=C/c1cccc(Nc2cccnc2)n1 [CBK037645]
Second: CCc1cccc(C)c1NC(=O)CSc1nnc(-c2cccnc2)n1C [CBK267582]
The “% of control remaining” value of the first is higher: 136.816 for the first, 92.7411 for the second.

Compared with `O=C(NCc1cccs1)C1(Cc2ccc(-c3ccc(F)c(F)c3)cc2)CCOCC1` [CBK285533], `O=C1NC2(CCN(C(=O)c3ccc(C(F)(F)F)c(F)c3)CC2)Oc2ccc(-c3ccccc3)cc21` [CBK115841] is higher in “% of control remaining” value: 74.6908 for the first, 104.009 for the second.

First: COc1ccccc1C(=O)Nc1sc2c(c1C#N)CC(C)(C)NC2(C)C [CBK307233]
Second: Cc1cc(=O)cc(C(=O)NC2CCN(c3ncccc3C#N)CC2)o1 [CBK307240]
The “% of control remaining” value of the first is lower: 62.3087 for the first, 91.5547 for the second.

Compared with `COc1ccc(S(=O)(=O)n2ccn(-c3ccc(Oc4ccccc4)cc3)c2=O)cc1OC` [CBK106649], `COc1ccc(CCNC(=O)N2CCN(CCc3ccccc3)CC2)cc1OC` [CBK158915] is lower in “% of control remaining” value: 105.475 for the first, 102.081 for the second.

First: CS(=O)(=O)N1CCN(c2ccc(NC(=O)c3ccc(-c4cccc([N+](=O)[O-])c4)o3)cc2)CC1 [CBK268602]
Second: c1ccc(Oc2cccc(CN3CCC(N4CCN(c5ccccc5)CC4)CC3)c2)cc1 [CBK264662G]
The “% of control remaining” value of the first is higher: 108.831 for the first, 84.8718 for the second.

Compared with `CCSc1nnc2c3c(sc2c1N)CC(C)(C)OC3` [CBK020374], `Cc1cc(C)c2c(c1)COC1(CCN(Cc3ccccc3)CC1)O2` [CBK061572] is higher in “% of control remaining” value: 56.3405 for the first, 93.3733 for the second.

Compared with `Cc1cc(C)n(-c2ccc(CN3C(=O)NC4(CCCC4)C3=O)cc2)n1` [CBK305796], `C=Cn1cc(CN2CCCC(O)(c3ccc(F)cc3)CC2)c(C)n1` (stereo not shown) [CBK285398] is higher in “% of control remaining” value: 39.4813 for the first, 88.8888 for the second.

First: COc1ccc2[nH]c3c(c2c1)CCN(C=O)C31CCN(Cc2cccc(Cl)c2)C1 (stereo not shown) [CBK040376]
Second: COc1ccc(C(=O)N2CCC3(CCN(C(=O)/C=C/c4ccc5c(c4)OCO5)C3)C2)cc1OC (stereo not shown) [CBK131775]
The “% of control remaining” value of the first is lower: 66.4229 for the first, 83.0385 for the second.

Going from `COc1cccc(CC2(C#N)CC2)c1` [CBK003907] to `COc1ccc2cc(C(=O)N3Cc4cnn(CCO)c4C3)n(C)c2c1` [CBK306707], the “% of control remaining” value falls from 100.65 to 82.4885.

Compared with `CCc1nc(CC(=O)N2CCOC(c3ccc(F)cc3)C2)cs1` (stereo not shown) [CBK304083], `OC1(c2ccc(F)cc2)CCCC2CN(Cc3cccnc3)CC21` (stereo not shown) [CBK284377] is higher in “% of control remaining” value: 69.6936 for the first, 75.6123 for the second.

First: Cc1nn(CCC#N)c(C)c1[C@@H]1C=C[C@@H](NC(=O)Nc2ccc(Cl)cc2)C1 [CBK288803]
Second: Cc1cccc(C)c1NC(=O)Nc1ccc(F)cc1F [CBK300526]
The “% of control remaining” value of the first is lower: 67.2798 for the first, 68.4019 for the second.

First: CCC1(CCc2ccccc2)CC(O)=CC(=O)O1 (stereo not shown) [CBK012790]
Second: CNCCc1nc(-c2cccs2)c2ccccn12 [CBK035905]
The “% of control remaining” value of the first is higher: 99.4746 for the first, 93.5863 for the second.

Going from `Cc1cc(NC(=O)CN(C)Cc2ccc(Br)cc2)on1` [CBK305599] to `Cc1nn(C)cc1C(C)NC(=O)c1ccc(CN(C)C)o1` (stereo not shown) [CBK282083], the “% of control remaining” value rises from 57.7662 to 81.9941.

First: O=C(N[C@H]1C[C@H]2C(=O)NC[C@@H](CCC(=O)N3CCOCC3)N2C1)c1cccs1 [CBK289009]
Second: O=C(C1CC1)N1C2CCC1CC(O)(Cn1ccc3ccncc31)C2 (stereo not shown) [CBK284652]
The “% of control remaining” value of the first is lower: 81.8961 for the first, 106.673 for the second.

Going from `O=C(OCc1cc([N+](=O)[O-])cc2c1OCOC2)c1ccco1` [CBK297537] to `OCc1cc(CC2(NCc3cccc4c3OCO4)COC2)no1` [CBK289314], the “% of control remaining” value falls from 100.09 to 97.5696.

First: COc1ccc(CNC(=O)NC(=O)C2CCN(C(C)=O)CC2)c(OC)c1 [CBK034839]
Second: O=C(OCCc1ccncc1)N1CCC(F)(F)CC1 [CBK200158]
The “% of control remaining” value of the first is higher: 98.5008 for the first, 81.9493 for the second.

Compared with `O=C1Nc2ccc(-c3cccc(C(F)(F)F)c3)cc2C(=O)N2C[C@H](O)C[C@@H]12` [CBK289273], `Cc1nc2n(c1C)CCN(c1ccc3nnc(C(F)(F)F)n3n1)C2` [CBK305815] is lower in “% of control remaining” value: 114.596 for the first, 77.6037 for the second.

Going from `Nc1ccc(-c2cn3ccnc3c(Nc3ccc(Cl)cc3)n2)cc1` [CBK066453] to `O=C(CCC1CCCC1)n1ccn(C(c2ccccc2)c2ccccc2)c1=O` [CBK106619], the “% of control remaining” value falls from 141.882 to 112.11.

In the case of `C(#Cc1cccc(-c2nc3ccccc3nc2-c2cccc(C#Cc3ccc(Sc4ccccc4)cc3)c2)c1)c1ccc(Sc2ccccc2)cc1` [CBK261158], the “% of control remaining” value is reported as 93.2332.
